Experimental data taken from PMC5515408.
Some of the results follow. At the low end of the ranking, values are background and their order means little.

What follows are sequences tested against MAX:MAX (p21) (UniProt P61244-2) (assay: protein-binding microarray (anti-MAX antibody)). Details: PBM: 15 mM Tris-HCl pH 7.5, 100 mM KCl, 0.075% NP40, 7.5 mM beta-mercaptoethanol, 375 ng/ul BSA, 8 ng/ul poly(dA-dT):(dA-dT), 550 ng complex, 60 min, room …; high values mean tight binding; double strand, one strand shown; sequences stand for … in CCGGC…TTAATAGCTAAGATTACTATATCGACG.

Sequence | binding signal (log2 normalized fluorescence)
TGATCAGAGGTA | -0.421
TGAAAACTTGTA | -0.947
TGATTTGCAGTA | -1.02
CGGCTCGTGGTA | 2.83
TGACTCGTGCTG | 2.92
TGATGTCGCGTA | -0.12
TGACGTGAAGTA | 0.269
TGATTTCATGTA | -0.0703
TGATCTTTCGTA | -1.28
TGACAGTTAGTA | -0.587
TGATCAGTCGTA | -0.894
CCTCACGTGGTA | 3.26
TGATCGGCGGTA | -0.884
TGAAGCTGCGTA | -0.854
GGACTCGTGATA | 3.03
TGATGTAGCGTA | -0.431
TGATGACACGTA | 0.641
TGAAGAATTGTA | -0.924
TGATGTGAGGTA | 0.197
TGAAGGCCCGTA | -0.779
TGATCACAGGTA | 0.41
TGAGGGTTTGTA | -0.842

Sequence | binding signal (log2 normalized fluorescence)
TGAGTAAATGTA | -1.03
TCACACCTGTTA | 2.73
TGAGCCGCAGTA | -1.11
TGACGTTAAGTA | -0.283
TGCGTCGTGGTA | 1.51
TGAGAGGACGTA | -0.633
TGATTCATCGTA | -0.789
TGACACGCCGTA | 2.42
TGAGGACGGGTA | -0.465
TGATAACCCGTA | -0.251
TGACCTCGCGTA | 1.02
TGATGTCCTGTA | 0.176
TGACCACTAGTA | -0.116
TGAGAGAATGTA | -0.684
TGATCTGTGGTA | -0.713
TGAGAGCTCGTA | -0.984
TGAATGAATGTA | 0.0478
TGAGAATACGTA | -0.622
TGAGGGTGAGTA | -0.306
TGACGCCTCGTA | -0.311
TGACTAAGCGTA | -0.723
TGAAGGAGGGTA | -0.228

Sequence | binding signal (log2 normalized fluorescence)
TGAGCCTATGTA | -0.921
TGACTCACGGTA | 0.412
TGATTGTTTGTA | -1.1
TGAGGCTCTGTA | -0.775
TGAAGCCAAGTA | -0.737
TGAAGCAGCGTA | -0.345
TGAGTTCTTGTA | -1.08
TGACTACTAGTA | -0.604
TGACATACGGTA | 0.646
TGATGTAGGGTA | 0.0352
TGATGGGGCGTA | 0.264
TGAAGGCACGTA | 0.169
TGAATCTGTGTA | -0.879
TGAGTGATCGTA | 0.187
TGAATTCATGTA | -0.0758
TGAGATTAAGTA | -1.33
TGAGCGTGCGTA | 2.15
TGAACCGAAGTA | -0.755
TGACGCGGCGTA | 0.0901
GAAGCTTTGGTG | -1.18
TGACGCGGAGTA | -0.194
TGAAGGGCGGTA | -0.00457

Sequence | binding signal (log2 normalized fluorescence)
TGACAGAAAGTA | -0.581
TTTCACATGGTA | 3.34
TGAGGCAATGTA | -0.283
TGATCCTTCGTA | -1.05
TGACGTGGTGTA | 1.52
TTTCAGGTGGTA | 1.74
TGAAGTGCAGTA | -0.233
TGATCAGTGGTA | -0.305
TGAGATTTGGTA | -1.41
TGAAACTAAGTA | -0.806
TGAAACGGGATA | -0.38
TGAGAGAGGGTA | -0.986
TGACATCACGTA | 0.859
CGACGAGTGGTA | 0.424
TGAAAGAACGTA | -0.363
TGAGTCACAGTA | -0.394
TGACTGAAGGTA | -0.366
TGACAAGTCGTA | -0.594
TGACAGAACGTA | -0.288
TGAGATAACGTA | -0.741
TGAATCCCTGTA | -0.621
